Measured values reported in the RNAGym collection of RNA variant scans (doi:10.7554/elife.90254).
Read counts are not given, so values of variants with three or more changes are uncertain.

B1: OR4K15 (parent)
chain: GUUAACGGUCAUAGGCCAUGGAAACUAGGAGCACCAUUUCGCUGCCAGUGAAGAAAUGAACAAAGAAAAUCUGGGCCAGGCAGGCAUCAAAAGAAAUAGUCUUGCGCUCAACCAGAAAGUCUGUAAUCAUUUUAAGGGUA

Variants of: B1
Assay: self-cleavage, relative activity (ratio to wild type); higher = more cleavage; in vitro, sequencing; the parent is a self-cleaving ribozyme

Q: For GUUAACGGUCGUAGGCCAAGGAAACUAGGAGCACCACUUCGCUGCCAGUGAAGAAAUGAACAAAGAAAAUCUGGGCCAGGCAGGCAUCAAAAGAAAUAGUCUUGCGCUCAACCAGAAAGUCUGUAAUCAUUUUAAGGGUA [A11G U19A U37C], which self-cleavage is on record?
A: 1.23

Q: With GUUAACGGUCGUAGGCCAUGGAAACUAGGAGCACCAUUUCGCUGCCAGUGAAGAAAUGAACAAAGAAAAUCUGGGCCAGGCAGGCAUCAAAAGAAAUAGUCUUGCGCUCAACCAGAAAAUCUGUAAUCACUUUAAGGGUA [A11G G119A U130C] as the variant, how does the self-cleavage read?
A: 1.33

Q: Which self-cleavage does the source give for GUUAACGGUCGCAGGCCAUGGAAACUAGGGGCACCAUUUCGCUGCCAGUGAAGAAAUGAACAAAGAAAAUCUGGGCCAGGCAGGCAUCAAAAGAAAUAGUCUUGCGCUCAACCAGAAAGUCUGUAAUCAUUUUAAGGGUA [A11G U12C A30G] here?
A: 1.35

Q: Which self-cleavage does the source give for GUUAACGGUCGUAGGCCACGGAAACUAGGAGCACCAUUUCGCUGCCAGUGAAGAAAUGGACAAAGAAAAUCUGGGCCAGGCAGGCAUCAAAAGAAAUAGUCUUGCGCUCAACCAGAAAGUCUGUAAUCAUUUUAAGGGUA [A11G U19C A59G] here?
A: 0.61

Q: Which self-cleavage does the source give for GUUAACGGUCGUAGGCCACGGAAACUAGGAGCACCAUUUCGCCGCCAGUGAAGAAAUGAACAAAGAAGAUCUGGGCCAGGCAGGCAUCAAAAGAAAUAGUCUUGCGCUCAACCAGAAAGUCUGUAAUCAUUUAAAGGGUA [A11G U19C U43C A68G U133A] here?
A: 0.81

Q: With GUUAACGGUCGUAGGCCACGGAAACUAGGGGCACCAUUUCGCUGCCAGUGGAGAGAUGAACAAAGAGAAUCUGGGCCAGGCAGGCAUCAAAAGAAAUAGUCUUGCGCUCAACCAGGAAGUCUGUAAUCAUUUUAAGGGUA [A11G U19C A30G A51G A55G A67G A116G] as the variant, how does the self-cleavage read?
A: 0.57

Q: With GUUAACGGUCGUAGGCCAAGGAAACUAGGAGCACCAUUUCGCUGCCAGUGAAGGAAUGAACAAAGAAAAUCUGGGCCAGGCAGGCAUCAAAAGAAAUAGUCUUGCGCUCAACCAGAAAGUCUGUAAUCAUUUUAAGGGUA [A11G U19A A54G] as the variant, how does the self-cleavage read?
A: 1.42

Q: With GUUAACGGUCGUAGGCCAUGGAAACUAGGAGCACCAUUUCGCUGCCAGUGAAGAAAUGAACAAAGAAAAUCUGGGCCAGGCAGGCAUCAAAAGAAAUAGUCUUGCGCUCAACCAAAAAGUCUGUAAUCAUUUUAAGGGUG [A11G G115A A140G] as the variant, how does the self-cleavage read?
A: 0.29

Q: Which self-cleavage does the source give for GUUAACGGUCGUAAGCCAUGGAAACUAGGAGCACCAUUUCGCUGCCAGUGAAGAAAUGAACAAAGAAAAUCUGGGCCAGGCAGGCAUCAAAAGAAAUAGUCCUGCGCUCAACCAGAAAGUCUGUAAUCACUUUAAGGGUA [A11G G14A U102C U130C] here?
A: 0.82

Q: Which self-cleavage does the source give for GUUAACGGUCGUAGGCCAAGGAAACUAGGAGCACCAUUUCGCUGCCAGUGAAGAAACGAACAAAGAAAAUCUGGGCCAGGCAGGCAUCAAAAGAAAUAGUCUUGCGCUCAACCAGAAAGUCUGUAAUCAUUUUAAGGGUA [A11G U19A U57C] here?
A: 0.76

Q: For GUUAACGGUCGUAGGCCAAGGAAACUAGGAGCACCAUUUCGCUGCCAGUGAAGAAACGCACAAAGAAAAUCUGGGCCAGGCGGGCAUCAAAAGAGAUAGUCUUGCGCUCGACCAGAAAGUCCGUAGUCAUUUUAAGGGUA [A11G U19A U57C A59C A82G A95G A110G U122C A126G], which self-cleavage is on record?
A: 0.01

Q: For GUUAACGGUCGUAGGCCAUGGAAACUAGGAGCACCAUUUCGCUCCCAGUGAAGAAAUGAACAAAGAGAAUCAGGGCCAGGCAGGCAUCAAAAGAAAUAGUCUUGCGCUCAACCAGAAAGUCUGUAAUCAUUUUAAGGGUA [A11G G44C A67G U72A], which self-cleavage is on record?
A: 0.23

Q: Which self-cleavage does the source give for GUUAACGGUCGUAGGCCACGGAAACUAGGAGCACCAUUUCGCUGCCAGUGGAGAAAUGAGCAAAGAAAAUCUGGGCCAGGCAGGCAUCAAAAGAAAUAGUCUUGCGUUCAACCAGAAAGUCUGUAAUCAUUUUAAGGGUA [A11G U19C A51G A60G C107U] here?
A: 0.07

Q: With GUUAACGGUCGCAGGCCAUGGAACCUAGGAGCACCAUUUUGCUGCCAGUGAAGAAAUGAACAAAGAAAAUCUGGGCCAGGCAGGCAUCAAAAGAAAUAGUCUUGCGCUCAACCAGAAAGCCUGUAAUCAUUUUAAGGGUA [A11G U12C A24C C40U U120C] as the variant, how does the self-cleavage read?
A: 0.91

Q: With GUUAACGGUCGAAGGCCAUGGAAACUAGGAGCACCAUUUCGCUGCCAGUGAAGAAAUGAACAAAGAAGAUCUGGGCCAGGCAGGCAUCAAAAGAAAUAGUCUUGCGCUCAACCAGAAAGUCUGUAAUCAUUCUAAGGGUG [A11G U12A A68G U132C A140G] as the variant, how does the self-cleavage read?
A: 1.34

Q: Which self-cleavage does the source give for GUUAACGGUCGUAAGCCAUGGAAACUAGGAGCACCAUUUCGCUGCCAGUGAAGAAAUGAACAAGGAAAAUCUGGGCCAGGCAGGCAUCAAAAGAAAUAGUCUUGCGCUCAACCAGAAAGUCUGUAAUCAUUUUAAGGGUA [A11G G14A A64G] here?
A: 0.76

Q: With GUUAACGGUCGUAGACCACGGAAACUAGGAGCACCAUUUCGCUGCCAGUGAAGAAAUGAACAAAGAAAAUCUGGGCCAGGCAGGCACCAAAAGAAAUAGUCUUGCGCUCAACCAGAAAGUCUGUAAUCAUUUUAAGGGUA [A11G G15A U19C U87C] as the variant, how does the self-cleavage read?
A: 0.4

Q: With GUUAACGGUCGCAGGCCAUGGAAACUAGGGGCACCAUUUCGCUGCCAGUGAAGAAAUGAACAAAGAAAAUCUGGGCCAGGCAGGCAUCAAAAGACAUAGUCUUGCGCUCAACCAGAAAGUCUGUAAUCAUUUUAAGGGUA [A11G U12C A30G A95C] as the variant, how does the self-cleavage read?
A: 0.97

Q: For GUUAACGGUCGCAGGCCAUGGAAACUAGGAGCACCAUUUCGCUGCCAGUGAGGAAAUGAACAAAGAAAAUCUGGGCCAGGCAGGCAUCAAAAGAAAUAGUCUUGCGCUCAACCAGAAAGUCUGUAAUCACUUUAAGGGUA [A11G U12C A52G U130C], which self-cleavage is on record?
A: 0.66

Q: For GUUAACGGUCGUAGGCCAUGGAAACUAGGAACACCUUUUCGCUGCCAGUGAAGAAAUGAACAAAGAAAAUCUGGGCCAGGCAGGCAUCAAAAGAAAUAGUCUUGCGCUCAACCAGAAAGUCUGUAAUCAUUUUAAGGGUA [A11G G31A A36U], which self-cleavage is on record?
A: 1.21

Q: Which self-cleavage does the source give for GUUAACGGUCGUAGGCCAUGGAAACUAGGAGCACCAUUUCGCUGCCAGUGAAGAAAUGAACAAAGAAAAUCUUGGCCAGGCAGGCAUCAAAAGAAAUAGUCUUGCGCUCAACCAGAAAGUCUGUAAUCAUUUUAGGGGAA [A11G G73U A135G U139A] here?
A: 0.21
